Hit rate of the full screen: of about 220,000 compounds, about 2,300 (1%) were called active. Inconclusive means that the source gave no clear call. Such entries were picked first, then a sample of the others. Calls follow the shape of the dose curve; as a rule, active = well fitted inhibition curve with a large enough effect; inconclusive = small, poorly fitted or top-dose-only effect, or effect the other way; inactive = no such curve, though single readings can be large or run the other way. Potencies of inconclusive entries are left out as doubtful fits.
biological target: Neuropeptide S receptor (Homo sapiens) (UniProt Q6W5P4); experiment: qHTS Assay for Antagonists of the Neuropeptide S Receptor: cAMP Signal Transduction; details: CHO-NPSR cells, cAMP TR-FRET, antagonist mode; activity change, negative = inhibition: at 38.3 µM (top of the series) unless noted; also: nearly all actives have a fitted effect of over 50% in size
% is scaled to controls: 0 for no effect and ±100 for the full control effect; potency is read from the fitted curve at half-maximal effect; tags tell the direction and shape of the fitted curve.

UniProt Q6W5P4, sequence (Q6W5P4 whole entry, looked up): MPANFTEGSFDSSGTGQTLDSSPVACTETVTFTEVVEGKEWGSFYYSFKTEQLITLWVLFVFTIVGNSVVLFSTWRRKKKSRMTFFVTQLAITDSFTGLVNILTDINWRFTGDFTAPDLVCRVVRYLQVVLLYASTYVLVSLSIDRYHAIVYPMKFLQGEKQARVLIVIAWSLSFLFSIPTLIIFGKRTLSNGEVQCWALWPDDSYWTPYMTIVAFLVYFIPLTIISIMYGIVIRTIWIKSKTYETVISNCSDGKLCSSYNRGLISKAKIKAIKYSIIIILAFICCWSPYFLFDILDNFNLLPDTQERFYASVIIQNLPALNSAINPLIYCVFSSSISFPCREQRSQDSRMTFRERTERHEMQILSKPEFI

| SMILES | activity change, negative = inhibition | Potency |
| --- | --- | --- |
| CCOC(=O)c1sc(=S)n(C)c1NC(=O)c1ccccc1C | inactive: -4.23% [at 46.1 µM] | – |
| CCOC(=O)c1c(NC(=O)c2ccc(N3C(=O)C4C5C=CC(C5)C4C3=O)cc2)sc2c1CCCC2 (stereo not given) | – | inconclusive [inhibitor, partial curve] |
| COc1ccccc1N1CCN(C(=O)COc2cc(C)cc(C)c2)CC1 | inactive: -21.1% | – |
| CCOC(=O)CC(NC(=O)CCc1c(C)nc2nc(C)nn2c1C)c1ccc(OC(C)C)cc1 (stereo not given) | inactive: 21.8% | – |
| O=[N+]([O-])c1ccc(/C=N/n2cnc3ccccc32)s1 | inactive: -13.4% | – |
| CC1(C)CC(=O)C(=Cc2cn(-c3ccccc3)nc2-c2ccc(Cl)cc2)C(=O)C1 | – | inconclusive [inhibitor, single point] |
| COc1cccc(NC(=O)N(Cc2cc3cc(C)cc(C)c3[nH]c2=O)CC2COCCO2)c1 (stereo not given) | – | inconclusive [inhibitor, partial curve] |
| CCOC(=O)Cn1c(=N)n(CCOc2cccc(C)c2)c2ccccc21 | inactive: 0.0346% [at 46.1 µM] | – |
| O=C(N/N=C\c1ccc(Cl)s1)c1ccc(Cn2cccn2)o1 | – | inconclusive [inhibitor, single point] |
| NC(N)=NN=C1CCCCCCCCCCC1 | – | inconclusive [activator, single point] |
| COc1cc(/C=C2/NC(=O)N(Cc3ccccc3F)C2=O)ccc1Oc1ccc([N+](=O)[O-])cn1 | inactive: -2.75% | – |
| Cc1[nH]c2ccc(F)cc2c1CCN(Cc1ccncc1)C(=S)Nc1ccc(F)cc1 | – | active: 7.94 µM |
| COC(=O)Cc1c(C)nc2nc(-c3ccc(C)cc3)[nH]n2c1=O | inactive: -6.09% [at 46.1 µM] | – |
| CCc1ccc(NC(=O)C(CC)Sc2nc3cc4c(cc3c(=O)n2Cc2ccco2)OCO4)cc1 (stereo not given) | – | inconclusive [inhibitor, single point] |
| CCOC(=O)C(C)Sc1cc(CS(=O)(=O)c2ccccc2)nc(-c2ccccc2)n1 (stereo not given) | – | inconclusive [inhibitor, single point] |
| Cc1cc(C)c(NC(=O)c2ccc[n+](Cc3ccc([N+](=O)[O-])cc3)c2)c(C)c1 | inactive: 24.1% | – |
| COc1ccc(N(C)S(=O)(=O)c2cccc(C(=O)OC(C(=O)Nc3cc(C)cc(C)c3)c3ccccc3)c2)cc1 (stereo not given) | inactive: -15.4% | – |
| COCCCN1C(=O)C(O)=C(C(=O)c2ccco2)C1c1ccccc1 (stereo not given) | – | inconclusive [activator, partial curve] |
| O=C1CCCN1CCC1CCN(C2CC(=O)N(c3ccc(Cl)cc3)C2=O)CC1 (stereo not given) | – | inconclusive [inhibitor, single point] |
| Cc1ccc(C2C3CN(C(C)C)CC=C3C(C#N)=C(N)C2(C#N)C#N)cc1 (stereo not given) | – | inconclusive [inhibitor, single point] |
| CCCc1cc(C(=O)NC2CCCCC2)no1 | inactive: -15.8% [at 46.1 µM] | – |
| COc1ccc2c(-c3ccccc3)cc(SC(C)C(N)=O)nc2c1 (stereo not given) | – | inconclusive [inhibitor, single point] |
| O=C1C(C2=NC(c3ccccn3)C3C(=O)N(c4ccc(Cl)cc4Cl)C(=O)C23)=C(O)c2ccccc21 (stereo not given) | – | inconclusive [inhibitor, single point] |
| CCOC(=O)c1c(N2C(=O)C=CC2=O)sc(C)c1C | – | inconclusive [inhibitor, partial curve] |

| SMILES | activity change, negative = inhibition | Potency |
| --- | --- | --- |
| Cc1ccc(O)c(-c2cc(C(=O)NCc3ccc4c(c3)OCO4)[nH]n2)c1 | inactive: -14.2% | – |
| CCOC(=O)c1c(C)[nH]c(C(=O)COC(=O)C2(C)CC2(Cl)Cl)c1C (stereo not given) | – | inconclusive [inhibitor, single point] |
| CCCCn1c(SCC(=O)N2CCC(C)CC2)nc2ccsc2c1=O | – | inconclusive [inhibitor, partial curve] |
| O=C1NC(=O)c2cc(NC(=O)C3CCCO3)ccc21 (stereo not given) | inactive: -4.72% [at 46.1 µM] | – |
| O=C(NCc1ccc(Cl)c(Cl)c1)c1ccco1 | inactive: 11.7% [at 46.1 µM] | – |
| O=C(/C=C/Sc1ccc(C(F)(F)F)cn1)c1ccccc1 | inactive: -49.4% | – |
| CC1(C)CC(=O)CC2(C1)NCC(c1ccccc1Cl)c1c2[nH]c2ccccc12 (stereo not given) | – | inconclusive [inhibitor, single point] |
| CC(C)N(Cc1nc(-c2ccc(Cl)cc2)no1)C(=O)c1cccs1 | – | inconclusive [activator, partial curve] |
| CCOc1cc(S(=O)(=O)N2CC=C(c3ccc(F)cc3)CC2)c(OCC)cc1-n1cnnn1 | – | inconclusive [inhibitor, partial curve] |
| COc1ccc2cc1Oc1ccc(cc1)CC1c3c(cc(OC)c4c3Oc3cc5c(cc3O4)CCNC5C2)CCN1C (stereo not given) | – | inconclusive [inhibitor, single point] |
| Cc1cccc(C(=O)Nc2ccccc2C(=O)OCc2c(C)noc2C)c1 | – | inconclusive [inhibitor, partial curve] |
| CCC(C)(C)c1ccc(OCCCC[n+]2ccccc2)c(C(C)(C)CC)c1 | – | inconclusive [inhibitor, single point] |
| COc1cc2nc(/C=C/c3ccc(N(C)C)cc3)sc2cc1SC | inactive: -19.8% [at 46.1 µM] | – |
| COc1ccc(N2C(=O)C(Cl)=C(Oc3cccc(OC)c3)C2=O)cc1 | – | active: 10 µM |
| c1ccc(CCc2nc(-c3ccc(-n4cccc4)cc3)no2)cc1 | – | inconclusive [inhibitor, single point] |
| COc1ccc(OC)c(-c2csc(N(CC3CCCO3)C(=O)C3CCCCC3)n2)c1 (stereo not given) | – | inconclusive [activator, single point] |
| CC1=C(C(=O)OCC2CCCO2)C(c2ccc(C)o2)C2=C(CC(c3ccc(N(C)C)cc3)CC2=O)N1 (stereo not given) | inactive: -21.7% [at 46.1 µM] | – |
| COc1ccc(CCNC(=O)C23CN(Cc4ccccc4)CC2C(c2ccc([N+](=O)[O-])cc2)=NO3)cc1 (stereo not given) | – | inconclusive [inhibitor, partial curve, poor fit] |
| O=C(NC(=S)Nc1ccccc1N1CCCCC1)c1ccccc1 | – | inconclusive [inhibitor, single point] |
| Cc1nnc(NC(=O)C2CCCCC2)s1 | inactive: -9.08% [at 46.1 µM] | – |
| Cn1c(=O)[nH]c(=O)c2c1nc(N1CCC(Cc3ccccc3)CC1)n2Cc1ccccc1 | – | inconclusive [inhibitor, single point] |
| COc1cc(/C=C/C(=O)OCC(=O)Nc2ccc(S(=O)(=O)N3CCCC3)cc2)ccc1O | inactive: -10% | – |
| c1ccc(Cn2nnc3c(N4CCN(Cc5ccc6c(c5)OCO6)CC4)ncnc32)cc1 | – | inconclusive [inhibitor, partial curve, poor fit] |
| CCOCCCNC(=O)C(c1ccc(OC)cc1)N(Cc1ccc2c(c1)OCO2)C(=O)c1ccccc1O (stereo not given) | inactive: -31.1% | – |

| SMILES | activity change, negative = inhibition | Potency |
| --- | --- | --- |
| Cc1cccc(Cn2ccc(-c3ccc(Cl)cc3)c(C#N)c2=O)c1 | inactive: -10.8% [at 46.1 µM] | – |
| COc1ccc(C(CCNCc2ccc(F)cc2)c2ccc(F)cc2)cc1 (stereo not given) | – | inconclusive [inhibitor, single point] |
| O=C(Nc1ccccc1)C1=C[C@H](C2CCCCC2)C[C@H](OCc2ccc(CO)cc2)O1 | – | inconclusive [activator, partial curve] |
| CC1Cc2ccccc2N1S(=O)(=O)c1cccc(C(=O)N2CC(=O)Nc3ccccc32)c1 (stereo not given) | inactive: -23.9% | – |
| CC(C)C(=O)Nc1cccc(NC(=S)NC(=O)C(c2ccccc2)c2ccccc2)c1 | – | inconclusive [inhibitor, single point] |
| Cc1[nH]c2ccccc2c1C(=O)C(=O)NCc1ccco1 | – | inconclusive [inhibitor, partial curve, poor fit] |
| Cc1cc(C)n(C(=O)c2ccc(C)c(S(=O)(=O)N3CCCCC3)c2)n1 | – | inconclusive [activator, partial curve] |
| Cc1noc(C)c1COC(=O)CCN1c2ccccc2Sc2ccccc21 | – | inconclusive [inhibitor, single point] |
| CCCc1cc(=O)[nH]c(SCC(=O)c2ccc(S(=O)(=O)N3CCCC3)cc2)n1 | inactive: 1.39% [at 46.1 µM] | – |
| COc1ccc(-c2noc(CCC(=O)Nc3cccnc3)n2)cc1OC | inactive: -14.1% [at 46.1 µM] | – |
| Cc1ccc(-c2cc(NC(=O)CCl)n(-c3ccccc3)n2)cc1 | – | inconclusive [inhibitor, single point] |
| CC(C)OC(=O)CSc1nnc(Cc2ccccc2)n1Cc1ccco1 | inactive: 0.959% [at 46.1 µM] | – |
| CCOC(=O)c1c(/N=C/c2cccc(C)c2O)sc2c1CCN(C)C2 | – | inconclusive [activator, full curve, poor fit] |
| COc1ccc(OC)c(NC(=O)CSc2nnc(CNc3ccc(F)cc3)o2)c1 | inactive: -24.2% [at 46.1 µM] | – |
| COc1ccc(C(=O)CN(C(=O)c2ccc(Cl)cc2)N2C(=O)c3ccccc3C2=O)cc1 | – | inconclusive [inhibitor, single point] |
| O=C(NCCO)c1ccc2c(c1)S(=O)(=O)c1ccccc1C2=O | inactive: -14.6% [at 46.1 µM] | – |
| CCn1c2ccc(OC)cc2c2nc3ccccc3nc21 | – | inconclusive [inhibitor, partial curve] |
| O=C(CCSc1ccc(Cl)cc1)c1cccs1 | – | inconclusive [inhibitor, single point] |
| CCS(=O)(=O)NCC(c1cccnc1)N1CCN(c2ccc(F)cc2)CC1 (stereo not given) | – | inconclusive [inhibitor, single point] |
| CCOc1ccc(NC(=O)CSc2nc3nc4c(cc3c(=O)n2CC)COC(C)(C)C4)cc1 | inactive: -18.9% | – |
| Cc1ccc2c(c1)CCCN2C(=O)c1ccncc1 | – | inconclusive [inhibitor, single point] |
| COc1cc(OC)c2c(-c3ccccc3)cc(=O)oc2c1C(CCN1CCCC(C)C1)c1ccc2c(c1)OCO2 (stereo not given) | – | inconclusive [inhibitor, single point] |
